Test results reported in PubChem BioAssay AID463173 (ICCB-Longwood Screening Facility, Harvard Medical School, 2010).
Among all 52,000 compounds or so, about 1,700 (3.3%) were called active. Rule as the data show it: active = survival mostly below about 52% (no sharp cut-off); inactive = mostly above about 56%. This is one part of the list.

Tested on: Wild type
Assay: growth inhibition of S. aureus wild type versus tarO mutant, primary screen, teichoic acid synthesis inhibitors, RN4220, OD600 (AID 463173)
Details: S. aureus RN4220 wild type/DeltatarO growth, OD600, 18 h, stronger effect = lower value, screened at 18.75 µg/mL (by protocol)

Row | SMILES | survival
1 | c1cncc(-c2nc(NCc3ccco3)c3ccccc3n2)c1 | inactive: 119%
2 | Cc1ccc2c(=O)cc(C(=O)Nc3ccc(S(=O)(=O)N(C)Cc4ccccc4)cc3)oc2c1C | inactive: 109%
3 | COc1ccc(S(=O)(=O)N2CCN(C)CC2)c(Cl)c1Cl | inactive: 104%
4 | O=C(NCCCO)C(=O)NCC(c1ccc2c(c1)OCO2)N1CCOCC1 (stereo not given) | active: 10%
5 | CCOc1ccc(OCC)c(NS(=O)(=O)c2c(C(=O)N3CCCCCC3)c(C)n(C)c2C)c1 | inactive: 71%
6 | CCOc1ccc(C(=O)c2cn(CC(=O)Nc3ccc(F)cc3)c3cc4c(cc3c2=O)OCCO4)cc1 | inactive: 131%
7 | O=C(CSc1nnc(-c2ccccc2)c(-c2ccccc2)n1)NC1CCCC1 | inactive: 73%
8 | O=C(O)C1C2C=CC(C2)C1C(=O)N1CCN(Cc2ccccc2)CC1 (stereo not given) | inactive: 94%
9 | CCOC(=O)C1CCCN(S(=O)(=O)c2cc3c4c(c2)CC(=O)N4CCC3)C1 (stereo not given) | inactive: 74%
10 | COc1ccc(C)cc1NC(=O)C1COc2ccccc2C1 (stereo not given) | inactive: 82%
11 | Fc1ccc(-n2cc(-c3ccccc3)c3c(NCCc4ccccc4)ncnc32)cc1 | inactive: 73%
12 | CCc1ccc(NC(=O)Cn2c(=O)n(CCCCC(=O)NCCc3ccccc3)c(=O)c3ccccc32)cc1 | inactive: 97%
13 | CCC(C)(C)NC(=O)C1CCN(S(=O)(=O)c2c(C)noc2/C=C/c2ccc(C)cc2)CC1 | inactive: 64%
14 | COc1ccc(NC(=O)C2=CC(c3ccc4c(c3)OCO4)=NS(=O)(=O)N2C)cc1 | inactive: 94%
15 | COc1cccc(CNC(=O)c2oc3c(c2C)-c2nn(Cc4cccc(Cl)c4)cc2CC3)c1 | inactive: 99%
16 | CCOC(=O)c1c(NC(=O)COc2c(C)cc(Cl)cc2Cl)sc2c1CCCC2 | inactive: 53%
17 | COc1ccc(-c2noc(CC(=O)Nc3ccc(Br)cc3C)n2)cc1 | inactive: 98%
18 | COc1ccc(S(=O)(=O)NCC(c2ccc(N(C)C)cc2)N2CCCC2)cc1 (stereo not given) | inactive: 73%
19 | O=C1CCS(=O)(=O)CC1 | inactive: 104%
20 | Cc1cc(C)c(/C=C/c2onc(C)c2S(=O)(=O)N2CCC(C(=O)N(C)Cc3ccccc3)CC2)c(C)c1 | inactive: 68%
21 | Cc1ccc(NC(=O)Nc2nnc(N(C)C3CCCCC3)s2)c(Cl)c1 | inactive: 95%
22 | COC(=O)C[n+]1ccc(C)cc1 | inactive: 99%
23 | Cc1ccc(-n2c(=O)c3c4c(sc3n(Cc3ccccc3C)c2=O)CCC4)cc1C | inactive: 96%

Row | SMILES | survival
24 | Cc1ccccc1C(=O)Nc1nc2nc(-c3ccccc3)cc(=O)n2[nH]1 | inactive: 88%
25 | CCOC(=O)C1(CC)CC(C)(c2csc(N)n2)OC1=O (stereo not given) | inactive: 108%
26 | COC(=O)CN(c1ccc(C)c(C)c1)S(C)(=O)=O | inactive: 98%
27 | O=C(Nc1ccc2c(c1)OCO2)c1cc(-c2ccc(Br)cc2)on1 | inactive: 89%
28 | Clc1cccc(-n2cc(-c3ccccc3)c3c(N4CCCCC4)ncnc32)c1 | inactive: 70%
29 | CCN1C(C(=O)c2ccccc2)=C(OC(=O)c2ccc(OC)cc2)c2ccccc2S1(=O)=O | inactive: 79%
30 | Cc1ccc(Cn2c(=N)n(CC(=O)c3ccccc3)c3ccccc32)cc1 | inactive: 107%
31 | Cc1ccc(NC(=O)c2oc3ccc(S(=O)(=O)N4CCCCC4)cc3c2C)cc1Cl | inactive: 83%
32 | CCN(Cc1ccccc1)C(=O)CCc1c(C)nc2c(c(C)nn2-c2ccc(C)c(C)c2)c1C | inactive: 75%
33 | CCOC(=O)N1CC=C2C(C#N)=C(N)C(C#N)(C#N)C(Cc3ccccc3)C2C1 (stereo not given) | inactive: 111%
34 | CCc1cccc(C)c1NC(=O)Cn1cc2c(n1)CCCC2 | inactive: 85%
35 | Cn1c(=O)c2c(-c3ccc(Br)cc3)n(CCc3ccccc3)cc2n(C)c1=O | inactive: 47%
36 | Cc1ccc(CCNC(=O)c2nn(C)c3c2CSc2ccccc2-3)cc1 | inactive: 90%
37 | CCCCOc1ccc(CNC(=O)CN2CCSc3ccccc32)cc1 | inactive: 69%
38 | CCN(CC)c1nc(OCC(F)(F)F)nc(N(c2ccccc2)c2ccccc2)n1 | inactive: 92%
39 | O=S(=O)(c1ccc(Br)cc1)c1nc(-c2ccco2)oc1SCc1ccccc1Cl | inactive: 137%
40 | CCCNC(=O)C1CCC(Cn2c(=O)c3sccc3n(Cc3cccc(OC)c3)c2=O)CC1 (stereo not given) | inactive: 60%
41 | CCC(C(=O)N1CCN(c2cccc(C)c2C)CC1)n1nc(C)c2sc3ccccc3c2c1=O (stereo not given) | inactive: 76%
42 | CCn1nnc2cc(C(=O)Nc3cccc(Cl)c3)ccc21 | inactive: 87%
43 | Cc1nc2nc(NC(=O)c3cccc(Cl)c3)[nH]n2c(=O)c1Cc1ccccc1 | inactive: 117%
44 | COc1cccc(CNC(=O)CCn2c(=O)c3cccn3c3ccc(F)cc32)c1OC | inactive: 77%
45 | COc1ccc(-n2nc(C(=O)N(C)c3cccc(C(F)(F)F)c3)c3c4ccccc4n(C)c3c2=O)cc1 | inactive: 129%
